# Source: PubChem BioAssay AID1347120 (National Center for Advancing Translational Sciences (NCATS), 2019)
# The campaign covered roughly 390,000 compounds. About 930 (0.24%) were called active. The shares of active, inactive and inconclusive entries below differ from those in the screen. Calls follow the shape of the dose curve; as a rule, active = well fitted activation curve with a large enough effect; inconclusive = small, poorly fitted or top-dose-only effect; inactive = no such curve, though single readings can be large or run the other way. A potency beside an inconclusive call is a rough fit, not a confirmed value.
# Test: qHTS for Suppressors of FUS Proteinopathy: Primary screen using FUS-linked yeast assay; also: nearly all actives have a fitted effect of over 55% in size;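 as to growth rescue (activation): plate controls were DMSO vehicle for no effect and reference control for full effect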
# Conditions: S. cerevisiae FUS-expressing, OD600, 24 h; Potency: growth rescue; growth rescue (activation): at 76.6 µM (top of the series)
# Procedure, shortened: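 Steps: raffinose overnight preculture; dilution to OD 0.005 in 2% galactose minimal medium; compound addition (concentration series); 24hr at 30C, 99% humidity; absorbance read at 600 nm.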
# Potency is read from the fitted curve at half-maximal effect; tags tell the direction and shape of the fitted curve.
SMILES,Potency,growth rescue (activation)
COc1ccc(N/N=C/c2c(O)n(-c3ccc(C)c(C)c3)c(=O)[nH]c2=O)cc1,"inconclusive: 2.82 µM [activator, full curve, poor fit]",
CO[C@H]([C@H](C)/C=C/N(C)C=O)[C@@H](C)C(=O)CC[C@H](C)[C@H](O)[C@H](C)[C@H]1OC(=O)/C=C/C(C)=C/[C@H](O)[C@H](OC)C[C@@H]2C=CC[C@@H](C[C@H](OC)[C@@]3(CO3)[C@@H](OC)C[C@@H](OC)[C@@H]1C)O2,"inconclusive: 10 µM [activator, full curve, poor fit]",
Cc1cc(C(=O)O)c(C)n1C1CC1,,inactive: -6.14%
COC(=O)C1=C(c2ccc(OC(F)(F)F)cc2)C[C@@H]2CC[C@H]1N2C(=O)NCCOc1ccccc1Cl,"inconclusive: 15.8 µM [activator, partial curve, poor fit]",
COc1ccc(C2CC(c3c(O)n(CCc4ccccc4)c(=O)[nH]c3=O)=NN2)cc1OC (stereo unspecified),active: 22.4 µM,
Oc1cc2c(cc1CN1CCN(c3ccccc3)CC1)OCO2,"inconclusive: 7.08 µM [activator, partial curve]",
COc1ccc(C(c2nnnn2-c2ccc3c(c2)OCCO3)N2CCC(n3c(=O)[nH]c4ccccc43)CC2)cc1 (stereo unspecified),"inconclusive: 15.8 µM [activator, partial curve]",
COC(=O)C1=C(c2cccc3c2S(=O)(=O)c2ccccc2-3)C[C@@H]2CC[C@H]1N2C(=O)N1CCc2cc(OC)c(OC)cc2C1,active: 20 µM,
CCN(CC)C(=O)c1ccc(NC(=O)c2cccc(C(F)(F)F)c2)cc1,,inactive: -14.5%
Cc1cccc(Cn2cccc(C(=O)Nc3ccc4c(c3)OCCO4)c2=O)c1,"inconclusive: 25.1 µM [activator, partial curve, poor fit]",
COC(=O)C1=C(c2ccc(F)cc2OCc2ccccc2)C[C@@H]2CC[C@H]1N2C(=O)NCCOc1ccccc1,"inconclusive: 20 µM [activator, single point]",
COc1ccc(CN2Cc3cnnn3-c3ccccc3C2c2ccccc2)cc1 (stereo unspecified),,inactive: 25.4%
COC(=O)C1=C(c2cccc(OCc3ccccc3)c2)C[C@@H]2CC[C@H]1N2C(=O)NCCOc1ccc(OC)cc1,"inconclusive: 28.2 µM [activator, partial curve]",
CCOC(=O)c1c(C)n(Cc2ccccc2)c2ccc(OCC(O)Cn3nc(C)nc3C)cc12 (stereo unspecified),"inconclusive: 50.1 µM [activator, single point]",
O=C1NCN(c2ccccc2)C12CCN(C(c1ccnc3ccccc13)c1nnnn1-c1ccc3c(c1)OCCO3)CC2 (stereo unspecified),"inconclusive: 15.8 µM [activator, partial curve]",
COc1ccc(/C=N/N=C(/N)N[N+](=O)[O-])c(OC)c1,,inactive: -1.03%
C1CC2NCCC3NCCC(N1)N32 (stereo unspecified),,inactive: -34.1%
O=C1NCN(c2ccccc2)C12CCN(C(c1cc3ccccc3o1)c1nnnn1Cc1ccccc1)CC2 (stereo unspecified),"inconclusive: 8.91 µM [activator, full curve]",

SMILES,Potency,growth rescue (activation)
Cc1cccc(C)c1-n1nnnc1C(c1ccccc1)N1CCC2(CC1)C(=O)NCN2c1ccccc1 (stereo unspecified),"inconclusive: 15.8 µM [activator, partial curve, poor fit]",
Cc1[nH]c2ccccc2c1C(=O)C(=O)N1CC2CC(C1)c1cccc(=O)n1C2 (stereo unspecified),,inconclusive: -95.9% [activator]
Cc1ccc(-n2c(/C=C\c3ccc(F)cc3)nc3ccccc3c2=O)cc1Cl,"inconclusive: 50.1 µM [activator, single point]",
O=c1[nH]c2ccccc2n1C1CCN(C(c2ccccc2)c2nnnn2Cc2ccccc2)CC1 (stereo unspecified),"inconclusive: 39.8 µM [activator, single point]",
c1ccc(C(c2ccccc2)c2cccnc2)cc1,"inconclusive: 11.2 µM [activator, single point]",
Cc1cc(/C=C2\C(=O)NC(=O)N(c3ccc(Cl)cc3)C2=O)c(C)n1-c1sc2c(c1C#N)CCCC2,"inconclusive: 50.1 µM [activator, single point]",
COc1ccc(-n2nnnc2C(c2cccc3ccccc23)N2CCC3(CC2)C(=O)NCN3c2ccccc2)cc1 (stereo unspecified),"inconclusive: 7.08 µM [activator, full curve]",
Cc1nn(-c2ccccc2)c(Cl)c1C1C(C#N)=C(N)Oc2c1c(=O)oc1ccccc21 (stereo unspecified),"inconclusive: 7.08 µM [activator, full curve]",
CCOC(=O)N(CC)c1ccc(C(O)(C(=O)OC)C(F)(F)F)cc1 (stereo unspecified),"inconclusive: 44.7 µM [activator, partial curve, poor fit]",
CN(C)c1ccc(/C=C/C=C2/C(=O)NC(=O)N(c3ccccc3)C2=O)cc1,active: 5.62 µM,
COc1ccc(S(=O)(=O)Cc2ccc(C(=O)N3CCC4(CC3)OCCO4)o2)cc1,,inactive: 5.85%
COc1ccc(N2C(=O)NC(=O)/C(=C\c3ccc([N+](=O)[O-])s3)C2=O)cc1,"inconclusive: 44.7 µM [activator, single point]",
CCC(C)NC(=O)c1c(N)n(CC2CCCO2)c2nc3ccccc3nc12 (stereo unspecified),"inconclusive: 31.6 µM [activator, single point]",
COC(=O)C1=C(c2ccc(-c3ccccc3)c(F)c2)C[C@@H]2CC[C@H]1N2C(=O)N1CCC(O)CC1,"inconclusive: 25.1 µM [activator, single point]",
CC(C)OCCCNC(=O)c1c(N)n(Cc2cccs2)c2nc3ccccc3nc12,"inconclusive: 28.2 µM [activator, partial curve, poor fit]",
COc1cccc(-n2c(/C=C/c3ccc(O)c(O)c3)nc3ccccc3c2=O)c1,"inconclusive: 25.1 µM [activator, partial curve, poor fit]",
O=C1CN=C(c2ccccc2Cl)c2cc(Cl)ccc2N1Cc1cccc(Cl)c1,"inconclusive: 28.2 µM [activator, single point]",
COC(=O)C1=C(c2ccc(F)cc2F)C[C@@H]2CC[C@H]1N2C(=O)NCc1ccc(F)cc1,"inconclusive: 28.2 µM [activator, partial curve, poor fit]",
